In PubChem BioAssay AID1745845 (National Center for Advancing Translational Sciences (NCATS), 2022):
Several values for one entry are separate records, joined by “and”; a condition that tells them apart may be missing. Equal values may be shown once. Out of some 360,000 compounds screened, about 2,600 (0.72%) were called active. This list was built around the results that the source calls inconclusive (neither active nor inactive); the mix of calls is not that of the screen. Calls follow the shape of the dose curve; as a rule, active = well fitted inhibition curve with a large enough effect; inconclusive = small, poorly fitted or top-dose-only effect; inactive = no such curve, though single readings can be large or run the other way. Where the call is inconclusive, the potency comes from a doubtful curve fit.

Assay: Primary qHTS for Inhibitors of ATXN expression; also: nearly all actives have a fitted effect of over 55% in size
Settings: HEK-293 ATXN2-luciferase reporter, luminescence, 24 h; activity change, negative = inhibition: at 57 µM (top of the series)
Procedure, shortened: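 ATXN2-luciferase reporter cells (luciferase flanked by upstream and downstream ATXN2 gene portions) were treated 24 h at 37 °C with compounds at up to 57 uM. SteadyGlo luminescence gave expression; GF-AFC fluorescence gave viability.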
% is scaled to controls: 0 for no effect and ±100 for the full control effect; potency is read from the fitted curve at half-maximal effect; tags tell the direction and shape of the fitted curve.

Activity change, negative = inhibition, inactive:
CCN1C[C@@H]2[C@@H]3C(=O)N(Cc4ccccc4)C(=O)[C@@H]3[C@](C)(C1=O)N2C(=O)c1ccc(Cl)c(Cl)c1 -10%
Cc1ccc2c(c1)C(=O)C(=O)N2CC1COc2ccccc2O1 (stereo not drawn) -4.6%
C/C(=N\Nc1ccccn1)c1ccc(OC(F)F)cc1 -15.1%
COC(=O)c1ccc(/C=C/C(=O)OCC(=O)Nc2sccc2C(N)=O)cc1 7.04%
CCOC(=O)c1c(S(=O)(=O)N2CCC(C(=O)Nc3ccccc3OC)CC2)c(C)n(CC)c1C 2.21%
Cc1cc(C)c2nc(C)cc(Nc3ccc(C(=O)NCCO)cc3)c2c1 -15.1%
O=C1/C(=C/c2cccnc2)SC(=S)N1c1ccc(O)cc1 0.0806%
COc1ccccc1C(=O)NCC(=O)OCC(=O)N(CC(C)C)c1c(N)n(Cc2ccccc2)c(=O)[nH]c1=O -2%
Cn1c(=O)n(C)c2cc(NC(=O)CCl)ccc21 -35.6%
Nc1nonc1-n1nnc(C(=O)N/N=C/c2ccc3c(c2)OCO3)c1CSc1ccccc1 -16.9%
CC(C)C(NC(=O)C1CC(=O)N(Cc2ccccc2)C1)c1nc2ccccc2[nH]1 (stereo not drawn) 2.37%
COc1ccc(CC2(CO)CCN(Cc3ccc4nsnc4c3)CC2)cc1 -19.4%
CC(=O)Nc1ccc(NC(=O)CN(C)S(=O)(=O)c2ccc3ccccc3c2)cc1 -7.9%
Cc1ccc(C(=O)NCC(c2ccc3c(c2)OCO3)N2CCN(C)CC2)cc1C (stereo not drawn) -15.6%
COc1cc(Cl)ccc1OCc1cc(C(=O)N(C)C2CC(C)(C)NC(C)(C)C2)no1 -2.74%

Activity change, negative = inhibition, inconclusive:
Brc1ccc(C2=Nn3cnnc3SC2)cc1 -43.5% [inhibitor]

Potency, inconclusive:
CCN1C(c2ccccc2)=C(c2ccccc2)S/C1=C\C=C1/SC(=S)N(C)C1=O 15.8 µM [inhibitor, partial curve, poor fit]
COc1cc(C)ccc1S(=O)(=O)N1CCN(C23CC4CC(CC(C4)C2)C3)CC1 31.6 µM [inhibitor, partial curve, poor fit]
CC1=C(C(=O)N(C)C)CC(CC(=O)NCCCCc2ccccc2)C(=O)N1Cc1ccc(C(C)(C)C)cc1 (stereo not drawn) 28.2 µM [inhibitor, partial curve]
CCC(C(=O)NCCc1c[nH]c2ccc(C)cc12)c1ccccc1 (stereo not drawn) 1 µM [inhibitor, partial curve]
CC1(C(=O)N2Cc3ccccc3C2)CCN1C(=O)C1(c2ccc(Cl)cc2)CC1 (stereo not drawn) 20 µM [inhibitor, single point]
CCOc1ccc(-c2cc(CCCC(=O)NCc3ccco3)no2)cc1 11.2 µM [inhibitor, partial curve, poor fit]
c1ccc(CNc2ncnc3scc(-c4cccs4)c23)nc1 14.1 µM [inhibitor, partial curve, poor fit]
CCOC(=O)C1CCN(c2cc3c(cc2NC(=O)c2ccccc2OCC)n(C)c(=O)n3C)CC1 35.5 µM [inhibitor, single point]
NC(=O)c1cccc(-c2cc(Nc3ccc(OC(F)(F)F)cc3)ncn2)c1 34.3 µM [inhibitor, partial curve, poor fit] and 39.8 µM [inhibitor, partial curve, poor fit]
COC(=O)c1[nH]c2cc(C)ccc2c1NC(=O)CN1CCN(C(=O)c2ccco2)CC1 17.8 µM [inhibitor, partial curve, poor fit]
Cn1c(=O)c2c(-c3ccc(Br)cc3)n(CCc3ccccc3)cc2n(C)c1=O 35.5 µM [inhibitor, single point]
Cc1cccc(NC(=S)NNc2ncc(C(F)(F)F)cc2Cl)c1 35.5 µM [inhibitor, single point]
O=C(Cc1ccc(-n2c(=O)c3sccc3n(Cc3ccc(F)cc3)c2=O)cc1)NCc1ccco1 39.8 µM [inhibitor, partial curve, poor fit]
CCc1ccc([C@@H]2CC=C(C(=O)O)[C@H](c3ccc(C(C)(C)C)cc3)N2S(=O)(=O)c2ccc(C)cc2)cc1 39.8 µM [inhibitor, single point]
O=C(c1ccc(S(=O)(=O)c2cccc(Cl)c2)c([N+](=O)[O-])c1)N1CCN(Cc2ccccc2)CC1 23.8 µM [inhibitor, partial curve, poor fit]
Cc1ccc(C(C)C)c(OCC(=O)Nc2ccccc2N2CCN(C)CC2)c1 35.5 µM [inhibitor, single point]
Cc1cccn2c(=O)c3cc(C(=O)NC4CCCC4)c(=N)n(CCCN4CCOCC4)c3nc12 3.16 µM [inhibitor, partial curve]
O=C(CCN1CCc2ccccc2C(O)(c2ccccc2)C1)c1ccc2c(c1)OCCO2 (stereo not drawn) 39.8 µM [inhibitor, single point]
Oc1ccc(/C=N/N=C/c2ccc(O)c(O)c2)cc1O 1.58 µM [inhibitor, partial curve, poor fit]
CCc1nc2c(OCc3cc(Cl)cc(Cl)c3)cccn2c1N(C=O)Cc1ccccc1 35.5 µM [inhibitor, single point]
CC[N+]1(C)CCC(O)(c2ccc(OC)cc2)C(C(=O)c2ccc(OC)cc2)C1 (stereo not drawn) 39.8 µM [inhibitor, single point]
Cn1c(O)c(/C=C2\C=NN=C2c2ccccc2)sc1=S 23.8 µM [inhibitor, partial curve, poor fit]
Cc1cccn2c(=O)c3cc(C(=O)NCCN4CCOCC4)c(=N)n(Cc4cccnc4)c3nc12 7.08 µM [inhibitor, single point]
Cc1cc(-c2ccccc2)nc(N/N=C/c2ccccc2)n1 39.8 µM [inhibitor, single point]
Cc1ccc(CN(C)C(=O)CN2C(=O)NC(c3ccccc3)(c3ccccc3)C2=O)c(C)c1 25.1 µM [inhibitor, single point]
CCOc1ccccc1NS(=O)(=O)c1ccc2c(c1)CC(C)N2C(=O)C1CCC1 (stereo not drawn) 17.8 µM [inhibitor, partial curve, poor fit]
O=C(/C=C/c1ccccc1)CCN1CCCCC1 39.8 µM [inhibitor, single point]
CC(=O)OC(C=C(C)C)C/C(C)=C/COc1c2ccoc2cc2oc(=O)ccc12 (stereo not drawn) 35.5 µM [inhibitor, single point]
Cc1ccc(NC(=O)Nc2nc(-c3ccc(C)s3)cs2)cc1 15.8 µM [inhibitor, partial curve, poor fit]
Cc1ccc(S(=O)(=O)N(C)C[C@H]2Oc3cc(Br)ccc3S(=O)(=O)N([C@H](C)CO)C[C@H]2C)cc1 39.8 µM [inhibitor, single point]
CCc1c(C)c(C#N)c2[nH]c3ccccc3n2c1=S 39.8 µM [inhibitor, partial curve, poor fit]
O=C(CSc1nc2ccccc2nc1Cc1ccc(Cl)cc1)N1CCCc2ccccc21 28.2 µM [inhibitor, single point]
Cc1ccc(S(=O)(=O)NCCc2csc(-c3ccc(Cl)cc3)n2)cc1 11.2 µM [inhibitor, partial curve]
NC(=O)C1CCN(c2ncnc3c2c(-c2ccccc2)cn3-c2ccccc2)CC1 28.2 µM [inhibitor, partial curve, poor fit]
CCOc1ccc(-n2c(=O)c3c(C)c(C)sc3n(CC(=O)NCc3ccco3)c2=O)cc1 25.1 µM [inhibitor, single point]
COc1ccc(OC)c(NC(=O)C2CCN(c3cc(-c4ccccc4)nc4ncnn34)CC2)c1 17.8 µM [inhibitor, partial curve, poor fit]
COc1ccc(C(=O)/C=C/c2ccc(O)cc2)c2c1CC(O)C(C)(C)O2 (stereo not drawn) 7.94 µM [inhibitor, partial curve, poor fit]
O=C(Nc1c(Cl)cccc1Cl)Oc1cccc2cccnc12 1.78 µM [inhibitor, full curve, poor fit]
CCN1CCC2(CC1)N=C(c1ccc(F)cc1)C(=S)N2C(=O)c1ccc(C)cc1 35.5 µM [inhibitor, single point]
CCCCNc1c(-c2cccc(Sc3ccc(OC)cc3)c2)nc2ccccn12 39.8 µM [inhibitor, single point]
Cc1c(C)n(Cc2ccc(F)cc2)c2ccc(C(=O)NCCCN3CCOCC3)cc12 35.5 µM [inhibitor, single point]

Potency, active:
CC(=O)C1=C(c2ccc(Br)cc2)C(=O)c2ccccc2C1=O 3.55 µM
CC(C)C[C@@H](C(=O)N[C@H](C(=O)OC1CCCC1)c1ccccc1)[C@H](O)C(=O)NO 21.7 µM
CCCCCCOC(=O)NC(=N)c1ccc(NCc2nc3cc(C(=O)N(CCC(=O)OCC)c4ccccn4)ccc3n2C)cc1 31.6 µM
COc1ccc(C(=O)N/N=C/c2cc(Br)ccc2O)cc1OC 1.41 µM
O=C(N=Nc1c(O)[nH]c2ccc(Br)cc12)c1cc(-c2cccs2)nc2ccccc12 11.2 µM
CN(C)CCCNc1nc2cc(-c3ccc(F)cc3)sc2c(=O)n1C 20 µM
